# B1: S008-NB149-9 VHH-Fc antibody (Fc fusion)
# chain: QVQLVESGGFVQAGGSLRLSCAASGRTFSKYAMGWFRQAPGKEREFVAAIRWIGGSTYYADSVKGRFTISRDNDKNTLYLQMNSLKPEDTAVYYCAAGYQAYPEPPWEYDYWGQGTQVTVSS[human IgG1 Fc with changes not shown]
# notes: VHH fused to human IgG1 hinge and Fc
# B2: S008-NB149-22 VHH-Fc antibody (Fc fusion)
# chain: QVQLVESGGGLVQAGGSLRLSCVASGRFPSIYRMAWFRQAPGKERDFVAAINWGGTATYYEDSVKGRFTISRDNTKNTVWLQMNSLKPEDTAVYYCAAGTGTTYTPQRGDAYGYWGQGTQVTVSS[human IgG1 Fc with changes not shown]
# notes: as for B1
# B3: S008-NB148-8 (Fc fusion)
# chain: EVQLVESGGGLVQAGGSLRLSCVVSGSTFSSYAMGWYRQAPGKQRELVAAISSGVSANVADSLKGRFAISRDNAKNAVYLQMNSLKPEDTAVYYCNTLPRSMPYWGKGTLVTVSS[human IgG1 Fc with changes not shown]
# notes: Tested as VHH-Fc; order VHH-hinge-Fc inferred
# B4: S008-NB148-25 (Fc fusion)
# chain: EVQLVESGGGLVQPGGSLRLSCAVSQSISSINAMDWYRQAPGKQRELVAIIFNNGRTNYADSVKGRFTISRDNARNTVYLQMNSLKPEDTAVYYCNIVPPLRNWGQGTQVTVSS[human IgG1 Fc with changes not shown]
# notes: as for B3
# B5: S008-NB148-5 (Fc fusion)
# chain: QLQLVESGGGLVQAGGSLRLSCAVSISTFTTNGWDWYRQAPGKQRELVALISNDGTTTYTDSVKGRFTISRDGAKNTVYLQMNNLKPEDTAVYYCNTIPPAGSWGQGTQVTVSS[human IgG1 Fc with changes not shown]
# notes: as for B3
# B6: S008-NB148-77 (Fc fusion)
# chain: EVQVVESGGGLVQAGGSLRLSCVASGFDFSDSVMGWYRQAPGKQREAVAIISSVGQSNYRDSVQGRFTVSRSNTENTMYLQMDSLKPEDTAIYYCKKFGPGEYWGQGTQVTVSS[human IgG1 Fc with changes not shown]
# notes: as for B3
# B7: S008-NB149-64 (Fc fusion)
# chain: EVQVVESGGGLVQPGGSLRLSCVASGIIFSSYAMGWYRQAPGKQRELVARISSGGGLYYEDPVKGRFTISRDNARNTVYLQMSSVKPEDTAVYYCNVVPYTPGYWGQGTQVTVSS[human IgG1 Fc with changes not shown]
# notes: as for B3
# B8: S008-NB149-20 (Fc fusion)
# chain: EVQVVESGGGLVQPGGSLRLSCAASGSGFTINAMTWYRRAPGKERELVAIITNGGITNYADSVKGRFTISRDNAKSTVYLQMDGLEPEDTAVYYCNIVPPVYWGQGTQVTVSS[human IgG1 Fc with changes not shown]
# notes: as for B3
# B9: S008-NB149-60 (Fc fusion)
# chain: QLQLVESGGGLVQPGGSLRLSCAASRSISSINTMTWYRYQGPGKERELVALITLGGTTNYADSVKGRFTISRDDAKNTLYLEMNSLKPEDTAVYYCNAVPPFRWGQGTQVTVSS[human IgG1 Fc with changes not shown]
# notes: as for B3
# Biological target: T1, human EGFR endogenously expressed on A431 cells (human, UniProt P00533)
# T1 construct: whole, on cells
# Assay: not given
row,Max_MFI,Binder
1,11200,B1
2,8850,B2

# Biological target: T2, human EGFR protein (human, UniProt P00533 part only)
# T2 construct: also called human EGFR-His; human EGFR-ECD protein; not shown: His tag
# Assay: not given
row,EC80 [µg/mL],Binder
1,76,B3
2,8.3,B4
3,20.1,B5
4,46.2,B6

# Biological target: T3, murine EGFR protein (murine, UniProt Q01279 25-647)
# T3 construct: Bought protein
# Assay: not given
Kd [nM],koff [s⁻¹],kon [M⁻¹ s⁻¹],Binder
53,0.0171,323000,B3
12.1,3.5,–,B6
0.959,0.000101,105000,B7

# Biological target: T4, Her2 protein (human, UniProt P04626 part only)
# T4 construct: Bought protein; also called human Her2 protein
# Assay: not given
row,OD450,Binder
1,0.08,B3
2,0.14,B4
3,0.09,B5
4,0.11,B6
5,0.14,B8
6,0.15,B7
7,0.15,B9

# Biological target: T4, Her2 protein
# Assay: not given
# Remark: another data set of the same source
row,OD450,Binder
1,0.12,B3
2,0.11,B4
3,0.11,B5
4,0.13,B6
5,0.18,B8
6,0.09,B7
7,0.16,B9

# Biological target: T4, Her2 protein
# Assay: not given
# Remark: another data set of the same source
row,OD450,Binder
1,0.09,B3
2,0.16,B4
3,0.32,B5
4,0.12,B6
5,0.16,B8
6,0.08,B7
7,0.14,B9

# Biological target: T5, monkey EGFR protein (commercial, SB, catalog number 90285-C08H) (monkey)
# T5 construct: Bought protein used to coat ELISA plates
# Assay: ELISA, coated monkey EGFR protein, antibody 0.01 nM
row,OD450,Binder
1,0.45,B1
2,0.36,B2

# Biological target: T6, monkey EGFR protein (cynomolgus monkey, UniProt P55245 part only (rhesus entry))
# T6 construct: Bought protein (SB 90285-C08H); also called cynomolgus monkey EGFR
# Assay: not given
Kd [nM],koff [s⁻¹],kon [M⁻¹ s⁻¹],Binder
2.59,0.000172,66300,B3
24.4,0.000583,23900,B4
3.25,0.000158,48700,B5
1.74,0.000446,256000,B6
2.63,0.000102,38600,B8
1.68,0.000148,88200,B9

# Biological target: T4, Her2 protein
# Assay: not given
# Remark: another data set of the same source
row,OD450,Binder
1,0.11,B3
2,0.11,B4
3,0.12,B5
4,0.11,B6
5,0.14,B8
6,0.17,B7
7,0.15,B9

# Biological target: T4, Her2 protein
# Assay: not given
# Remark: another data set of the same source
row,OD450,Binder
1,0.1,B3
2,0.1,B4
3,0.11,B5
4,0.12,B6
5,0.17,B8
6,0.13,B7
7,0.17,B9

# Biological target: T7, cynomolgus monkey EGFR on HEK293T-monkey EGFR cells (cynomolgus monkey, UniProt P55245 (rhesus entry))
# Assay: FACS, HEK293T-monkey EGFR cells
EC50 [nM],Max MFI,Binder
0.57,8960,B1
–,9270,B2

# Biological target: T5, monkey EGFR protein (commercial, SB, …)
# Assay: ELISA, coated monkey EGFR protein, antibody 1 nM
row,OD450,Binder
1,1.95,B1
2,1.88,B2

# Biological target: T4, Her2 protein
# Assay: not given
# Remark: another data set of the same source
row,OD450,Binder
1,0.1,B3
2,0.11,B4
3,0.18,B5
4,0.12,B6
5,0.13,B8
6,0.07,B7
7,0.1,B9

# Biological target: T8, human EGFRvIII-His tag protein (human, UniProt P00533 part only)
# T8 construct: Made in HEK293E, purified on nickel column; also called human EGFRvIII protein; not shown: His tag
# Assay: not given
Kd [nM],koff [s⁻¹],kon [M⁻¹ s⁻¹],Binder
42.5,0.00325,76600,B3
17.2,0.000727,42400,B4
2.98,9.47e-05,31800,B5
9.91,0.00188,190000,B6

# Biological target: T5, monkey EGFR protein (commercial, SB, …)
# Assay: ELISA, coated monkey EGFR protein, antibody 0 nM (blank)
row,OD450,Binder
1,0.12,B1
2,0.04,B2

# Biological target: T4, Her2 protein
# Assay: not given
# Remark: another data set of the same source
row,OD450,Binder
1,0.1,B3
2,0.11,B4
3,0.1,B5
4,0.12,B6
5,0.12,B8
6,0.07,B7
7,0.19,B9

# Biological target: T3, murine EGFR protein
# Assay: not given
# Remark: another data set of the same source
row,Binder,binding result
1,B4,no binding (tested: 200 nM (highest antigen concentration))
2,B5,no binding (tested: 200 nM (highest antigen concentration))
3,B8,no binding (tested: 200 nM (highest antigen concentration))
4,B9,no binding (tested: 200 nM (highest antigen concentration))

# Biological target: T2, human EGFR protein
# Assay: not given
# Remark: another data set of the same source
Kd [nM],koff [s⁻¹],kon [M⁻¹ s⁻¹],Binder
66.1,0.00328,49700,B3
73.1,0.00141,19200,B4
9.75,0.000325,33300,B5
19.6,18,9.18e+08,B6

# Biological target: T5, monkey EGFR protein (commercial, SB, …)
# Assay: ELISA, coated monkey EGFR protein, antibody 0.001 nM
row,OD450,Binder
1,0.11,B1
2,0.07,B2

# Biological target: T4, Her2 protein
# Assay: not given
# Remark: another data set of the same source
row,OD450,Binder
1,0.12,B3
2,0.24,B4
3,0.18,B5
4,0.18,B6
5,0.18,B8
6,0.17,B7
7,0.23,B9

# Biological target: T5, monkey EGFR protein (commercial, SB, …)
# Assay: ELISA, coated monkey EGFR protein, antibody 100 nM
row,OD450,Binder
1,2.19,B1
2,2.3,B2

# Biological target: T7, cynomolgus monkey EGFR on …
# Assay: FACS, HEK293T-monkey EGFR cells (specificity assay)
row,Max_MFI,Binder
1,5170,B1
2,6370,B2

# Biological target: T5, monkey EGFR protein (commercial, SB, …)
# Assay: ELISA, coated monkey EGFR protein, antibody 10 nM
row,OD450,Binder
1,2.15,B1
2,2.26,B2

# Biological target: T5, monkey EGFR protein (commercial, SB, …)
# Assay: ELISA, coated monkey EGFR protein, antibody 0.1 nM
row,OD450,Binder
1,1.55,B1
2,1.37,B2

# Biological target: T5, monkey EGFR protein (commercial, SB, …)
# Assay: ELISA, coated monkey EGFR protein, antibody 0.0001 nM
row,OD450,Binder
1,0.06,B1
2,0.04,B2

# Source: patent publication US20240101686A1 (SIMCERE ZAIMING PHARMACEUTICAL, published 2024)
